# Test results from paper PMC7933254.
# Chains of the proteins cited; added tags and fusions are not shown. Lines headed by an entry give the natural chain unless they say otherwise; changes in a name come on top. A line that says so, or that is headed by a name, gives the form on record, which may keep a tag or linker. Residues count along the entry.
# UniProt Q9HBA0: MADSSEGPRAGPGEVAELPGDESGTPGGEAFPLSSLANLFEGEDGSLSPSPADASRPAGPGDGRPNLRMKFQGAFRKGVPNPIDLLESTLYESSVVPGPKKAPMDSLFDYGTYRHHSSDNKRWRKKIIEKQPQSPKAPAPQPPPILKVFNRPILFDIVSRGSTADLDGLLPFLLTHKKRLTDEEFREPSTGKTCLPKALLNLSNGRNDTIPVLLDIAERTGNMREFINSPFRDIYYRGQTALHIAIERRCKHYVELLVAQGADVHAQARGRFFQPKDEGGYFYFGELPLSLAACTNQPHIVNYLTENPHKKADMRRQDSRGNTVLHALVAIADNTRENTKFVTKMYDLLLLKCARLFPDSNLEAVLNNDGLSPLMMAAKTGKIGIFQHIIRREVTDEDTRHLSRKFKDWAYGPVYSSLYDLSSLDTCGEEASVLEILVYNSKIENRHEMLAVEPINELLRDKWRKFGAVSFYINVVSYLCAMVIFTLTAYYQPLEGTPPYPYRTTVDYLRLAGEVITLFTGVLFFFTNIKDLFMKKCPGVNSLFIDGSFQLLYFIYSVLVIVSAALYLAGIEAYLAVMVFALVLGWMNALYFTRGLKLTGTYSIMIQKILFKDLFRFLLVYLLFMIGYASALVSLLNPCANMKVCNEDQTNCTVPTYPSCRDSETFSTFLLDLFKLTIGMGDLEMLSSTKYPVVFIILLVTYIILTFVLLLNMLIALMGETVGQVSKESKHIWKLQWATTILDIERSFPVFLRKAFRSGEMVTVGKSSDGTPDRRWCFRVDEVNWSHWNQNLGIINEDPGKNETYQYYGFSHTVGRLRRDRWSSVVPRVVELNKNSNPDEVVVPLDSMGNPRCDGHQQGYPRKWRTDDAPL
# recombinant human TRPV4 ankyrin repeat domain, wild type (hV4-ARD-WT): residues 148-397 of Q9HBA0
# TRPV4 121AAWAA125 (PI(4,5)P2 binding domain mutant) (Q9HBA0, form named): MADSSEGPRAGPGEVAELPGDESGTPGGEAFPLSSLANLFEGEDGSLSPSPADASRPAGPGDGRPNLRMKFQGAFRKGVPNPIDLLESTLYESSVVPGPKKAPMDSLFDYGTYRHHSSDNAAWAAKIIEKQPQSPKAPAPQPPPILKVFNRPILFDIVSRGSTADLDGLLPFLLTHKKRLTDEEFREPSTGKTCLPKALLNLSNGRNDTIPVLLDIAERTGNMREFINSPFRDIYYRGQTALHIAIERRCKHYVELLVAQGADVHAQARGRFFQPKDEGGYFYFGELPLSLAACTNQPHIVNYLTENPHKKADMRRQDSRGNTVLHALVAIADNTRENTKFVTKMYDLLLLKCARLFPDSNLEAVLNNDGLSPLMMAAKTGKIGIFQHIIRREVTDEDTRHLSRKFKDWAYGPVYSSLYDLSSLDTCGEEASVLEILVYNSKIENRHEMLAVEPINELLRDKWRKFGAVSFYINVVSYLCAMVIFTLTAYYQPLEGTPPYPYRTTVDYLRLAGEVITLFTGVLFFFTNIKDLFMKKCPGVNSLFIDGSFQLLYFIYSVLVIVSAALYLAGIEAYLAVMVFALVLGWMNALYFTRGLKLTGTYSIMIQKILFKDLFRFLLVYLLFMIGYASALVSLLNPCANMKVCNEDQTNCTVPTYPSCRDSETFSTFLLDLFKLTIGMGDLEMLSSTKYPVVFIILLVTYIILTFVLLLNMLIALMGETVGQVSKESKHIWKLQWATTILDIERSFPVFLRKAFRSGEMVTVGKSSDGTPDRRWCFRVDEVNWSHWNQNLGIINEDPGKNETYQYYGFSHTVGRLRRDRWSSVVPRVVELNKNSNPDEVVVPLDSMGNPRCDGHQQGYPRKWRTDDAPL
# UniProt P61586: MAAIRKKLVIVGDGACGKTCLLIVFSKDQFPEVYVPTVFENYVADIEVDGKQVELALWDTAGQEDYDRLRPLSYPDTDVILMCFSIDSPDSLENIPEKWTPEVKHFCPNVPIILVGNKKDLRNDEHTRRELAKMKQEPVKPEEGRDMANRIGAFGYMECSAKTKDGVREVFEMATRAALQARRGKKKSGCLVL
# UniProt Q9BY11: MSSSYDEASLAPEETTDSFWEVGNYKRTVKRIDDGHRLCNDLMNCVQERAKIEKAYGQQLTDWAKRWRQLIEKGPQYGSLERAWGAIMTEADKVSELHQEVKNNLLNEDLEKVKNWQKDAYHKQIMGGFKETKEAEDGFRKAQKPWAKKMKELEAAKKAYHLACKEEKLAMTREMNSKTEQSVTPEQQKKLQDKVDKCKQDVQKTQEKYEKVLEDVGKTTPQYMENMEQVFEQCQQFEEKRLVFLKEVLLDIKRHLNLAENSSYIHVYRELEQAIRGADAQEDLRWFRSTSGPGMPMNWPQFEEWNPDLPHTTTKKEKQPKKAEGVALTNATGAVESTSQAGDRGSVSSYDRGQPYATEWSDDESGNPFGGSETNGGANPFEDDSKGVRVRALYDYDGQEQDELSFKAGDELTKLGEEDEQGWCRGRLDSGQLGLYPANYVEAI
# UniProt P60953: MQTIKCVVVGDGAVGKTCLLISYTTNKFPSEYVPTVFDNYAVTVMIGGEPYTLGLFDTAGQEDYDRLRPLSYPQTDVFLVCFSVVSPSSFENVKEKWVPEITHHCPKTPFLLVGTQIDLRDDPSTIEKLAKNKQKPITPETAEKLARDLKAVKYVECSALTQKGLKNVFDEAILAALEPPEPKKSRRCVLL
# UniProt Q9EPK8: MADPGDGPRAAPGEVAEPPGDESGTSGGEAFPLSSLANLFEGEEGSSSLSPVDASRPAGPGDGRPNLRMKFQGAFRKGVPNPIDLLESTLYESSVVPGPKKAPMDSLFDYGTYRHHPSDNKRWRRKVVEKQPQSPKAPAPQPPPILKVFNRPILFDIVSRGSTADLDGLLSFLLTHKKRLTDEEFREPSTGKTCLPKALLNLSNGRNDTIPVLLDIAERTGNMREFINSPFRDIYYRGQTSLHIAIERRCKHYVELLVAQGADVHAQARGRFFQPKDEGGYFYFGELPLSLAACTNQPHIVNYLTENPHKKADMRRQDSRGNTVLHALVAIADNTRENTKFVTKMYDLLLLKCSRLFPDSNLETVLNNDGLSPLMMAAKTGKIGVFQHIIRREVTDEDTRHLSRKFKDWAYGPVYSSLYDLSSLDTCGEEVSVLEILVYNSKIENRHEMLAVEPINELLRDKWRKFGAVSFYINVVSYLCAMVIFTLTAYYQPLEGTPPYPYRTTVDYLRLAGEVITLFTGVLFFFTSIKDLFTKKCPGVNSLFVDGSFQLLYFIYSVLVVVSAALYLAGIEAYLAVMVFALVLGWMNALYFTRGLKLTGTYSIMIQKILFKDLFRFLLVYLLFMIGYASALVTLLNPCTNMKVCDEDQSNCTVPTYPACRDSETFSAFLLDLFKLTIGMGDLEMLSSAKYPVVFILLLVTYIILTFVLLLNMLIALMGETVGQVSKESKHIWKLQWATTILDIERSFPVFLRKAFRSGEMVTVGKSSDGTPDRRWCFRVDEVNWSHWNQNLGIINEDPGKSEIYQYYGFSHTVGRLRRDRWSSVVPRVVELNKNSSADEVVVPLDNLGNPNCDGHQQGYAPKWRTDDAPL
# UniProt Q9QUI0: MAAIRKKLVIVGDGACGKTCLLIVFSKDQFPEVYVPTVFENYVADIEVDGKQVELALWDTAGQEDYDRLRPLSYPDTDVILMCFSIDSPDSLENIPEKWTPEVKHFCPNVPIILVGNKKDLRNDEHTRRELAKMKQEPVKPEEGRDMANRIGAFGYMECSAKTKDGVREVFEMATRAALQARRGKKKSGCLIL
# These are yes or no findings as the source states them, for the method shown. For part of these data: In cells and extracts the contact can be indirect. Some entries that bind do so weakly or less than the wild type.
# How the values were obtained:
# [1] = target: recombinant human TRPV4 ankyrin repeat domain, wild type (hV4-ARD-WT) (human) (UniProt Q9HBA0); assay: pull-down; purified hV4-ARD-His bound to NiNTA beads, incubated with lysate from cells expressing RhoA-GFP; only the target purified
# [2] = target: WT RhoA-GFP, expressed in MN-1 cells (UniProt P61586); assay: co-IP; co-immunoprecipitations shown only in supplementary figures (2b, 2e, 3f, 3g); transfected cells, cell line and antibodies not told in the main text
# [3] = target: WT RhoA-GFP, expressed in MN-1 cells (UniProt P61586); assay: co-IP; MN-1 cells transfected with tagged TRPV4 and tagged GTPase; IP Lysis Buffer (25 mM Tris-HCl pH 7.4, 150 mM NaCl, 1% NP-40, 1 mM EDTA, 5% glycerol, with or without 10 mM MgCl2); anti-GFP or anti-FLAG antibody on Protein G Dynabeads, 1 h, 4 °C; some panels with HC067 (0.5 µM), excess GDP or GTPγS
# PACSIN1-Myc = PACSIN1-Myc (UniProt Q9BY11); assay: co-IP; co-immunoprecipitations shown only in supplementary figures (2b, 2e, 3f, 3g); transfected cells, cell line and antibodies not told in the main text
# [4] = target: WT RhoA-GFP, expressed in MN-1 cells (UniProt P61586); assay: co-IP; MN-1 cells transfected with TRPV4-FLAG and TRPV4-GFP constructs (WT or neuropathy mutant) as well as RhoA-GFP; immunoprecipitated TRPV4-FLAG quantified by densitometry
# [5] = target: T19N RhoA-GFP, expressed in MN-1 cells (UniProt P61586); assay: co-IP; MN-1 cells transfected with tagged TRPV4 and tagged GTPase; IP Lysis Buffer (25 mM Tris-HCl pH 7.4, 150 mM NaCl, 1% NP-40, 1 mM EDTA, 5% glycerol, with or without 10 mM MgCl2); anti-GFP or anti-FLAG antibody on Protein G Dynabeads, 1 h, 4 °C; some panels with HC067 (0.5 µM), excess GDP or GTPγS
# Cdc42-Myc = Cdc42-Myc (UniProt P60953); assay: as above
# [6] = target: E54A RhoA-GFP, expressed in MN-1 cells (UniProt P61586); assay: as above
# [7] = target: Q63L RhoA-GFP, expressed in MN-1 cells (UniProt P61586); assay: as above
# [8] = target: E47A RhoA-GFP, expressed in MN-1 cells (UniProt P61586); assay: as above
# [9] = target: TRPV4-FLAG (wild type), stably and inducibly expressed in T-Rex-TRPV4^WT cells (human) (UniProt Q9HBA0); assay: co-IP; T-Rex-TRPV4 cells induced with tetracycline (15 ng/ml); anti-FLAG immunoprecipitation, endogenous RhoA detected; some panels with HC067, hypotonic saline (5 min) or GSK101
# [10] = target: R269C TRPV4-FLAG, stably and inducibly expressed in T-Rex-TRPV4^R269C cells (human) (UniProt Q9HBA0); assay: as above
# [11] = target: endogenous TRPV4 of mouse choroid plexus (mouse (endogenous in choroid plexus)) (UniProt Q9EPK8); assay: co-IP; mouse choroid plexus lysate; anti-TRPV4 polyclonal antibody (Abcam ab39260) or nonspecific rabbit IgG, 24 h, 4 °C
# [12] = target: RhoA-Q63L-Myc, immunopurified from HEK293T cells (UniProt P61586); assay: pull-down; RhoA-WT-Myc or RhoA-Q63L-Myc immunopurified from HEK293T cells, incubated with 10 µg purified hV4-NTD; both purified
substance,measurement,setting,value
RhoA-GFP in lysate of cells expressing RhoA-GFP (cell line not stated) (from UniProt P61586 1-193),binding,[1],binds
"TRPV4 121AAWAA125 (PI(4,5)P2 binding domain mutant) (from UniProt Q9HBA0 1-871)",binding,[2],binds
TRPV4 P142A/P143L (proline-rich domain mutant) (from UniProt Q9HBA0 1-871),binding,[2],binds
"TRPV4-D333G-FLAG, expressed in MN-1 cells (from UniProt Q9HBA0 1-871)",binding,[3],binds
"TRPV4-FLAG (wild type), expressed in MN-1 cells (from UniProt Q9HBA0 1-871)",binding,PACSIN1-Myc,binds
same,binding,[4],binds
same,binding,[3],binds
same,binding,[5],binds
same,binding,Cdc42-Myc,no binding
same,binding,[6],no binding
same,binding,[7],no binding
same,binding,[8],binds
"TRPV4-FLAG M680K with skeletal dysplasia mutation D333G, expressed in MN-1 cells (from UniProt Q9HBA0 1-871)",binding,[3],binds
"TRPV4-FLAG M680K with skeletal dysplasia mutation I331F, expressed in MN-1 cells (from UniProt Q9HBA0 1-871)",binding,[3],binds
"TRPV4-I331F-FLAG, expressed in MN-1 cells (from UniProt Q9HBA0 1-871)",binding,[3],binds
"TRPV4-M680K-FLAG, expressed in MN-1 cells (from UniProt Q9HBA0 1-871)",binding,[3],binds
"TRPV4-R237L-FLAG, expressed in MN-1 cells (from UniProt Q9HBA0 1-871)",binding,PACSIN1-Myc,binds
endogenous RhoA of HEK293T / T-Rex-TRPV4 cells (from UniProt P61586 1-193),binding,[9],binds
same,binding,[10],no binding
endogenous RhoA of mouse choroid plexus (from UniProt Q9QUI0 1-193),binding,[11],binds
recombinant human TRPV4 N-terminal domain (hV4-NTD) (from UniProt Q9HBA0 2-397) (domain or fragment),binding,[12],no binding (tested: 10 µg purified hV4-NTD)
